# Laboratory results: paper PMC6919601, “Identification of Plasmodium dipeptidyl aminopeptidase allosteric inhibitors by high throughput screening” (PLoS ONE, 2019)
# Screen size: about 110,000 compounds; about 230 (0.21%) showed an effect of 50% or more. This is one part of the list.
# Biological target: DPAP1 (Plasmodium falciparum, UniProt Q8IIJ9)
# Experiment: primary screen, percent inhibition; read by cleavage of a fluorogenic dipeptide substrate; higher = more effect of the substance
# Design: species or system P. falciparum D10 trophozoite lysates; single well
# 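Further: 30 min substrate incubation versus DMSO and 10 µM JCP410 controls.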
# DPAP1, sequence (Q8IIJ9 whole entry, looked up): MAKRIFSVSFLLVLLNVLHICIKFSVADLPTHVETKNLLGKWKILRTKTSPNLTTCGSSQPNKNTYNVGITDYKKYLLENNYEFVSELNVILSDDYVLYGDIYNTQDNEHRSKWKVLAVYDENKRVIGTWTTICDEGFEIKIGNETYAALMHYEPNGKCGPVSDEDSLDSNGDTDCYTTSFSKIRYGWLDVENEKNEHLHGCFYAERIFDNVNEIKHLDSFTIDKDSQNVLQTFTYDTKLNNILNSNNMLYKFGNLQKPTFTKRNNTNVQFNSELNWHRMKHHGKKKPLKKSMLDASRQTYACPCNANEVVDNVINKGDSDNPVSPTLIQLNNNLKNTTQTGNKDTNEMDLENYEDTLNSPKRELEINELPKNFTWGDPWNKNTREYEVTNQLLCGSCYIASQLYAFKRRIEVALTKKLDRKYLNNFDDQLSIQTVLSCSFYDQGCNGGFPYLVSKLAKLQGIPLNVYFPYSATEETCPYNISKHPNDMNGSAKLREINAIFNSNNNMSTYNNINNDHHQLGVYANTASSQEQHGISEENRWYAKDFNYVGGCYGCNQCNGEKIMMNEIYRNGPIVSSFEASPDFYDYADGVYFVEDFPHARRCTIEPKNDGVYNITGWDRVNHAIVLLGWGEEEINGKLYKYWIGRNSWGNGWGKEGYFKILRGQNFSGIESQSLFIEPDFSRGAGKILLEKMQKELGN
row,Compound,% Inhibition @ 10 uM
1,Cc1cccc(OCC(=O)N(Cc2ccccc2)c2ccccn2)c1C,-3.12%
2,COc1ccc(NC(=O)CN2C(=O)S/C(=C/c3cccc(O)c3)C2=O)cc1,18%
3,N#CCNC(=O)C(CC(=O)N1CCCCC1)CS(=O)(=O)Cc1ccccc1 (stereo not drawn),-7.21%
4,CCOc1ccc(NC(=O)CN(c2ccc(F)cc2)S(=O)(=O)c2ccc(C)cc2)cc1,12.2%
5,COc1ccc(NS(=O)(=O)c2ccc(NC(=O)CCC(=O)O)cc2)cc1,-1.51%
6,CN1C2CCC1/C(=C\c1ccccc1)C(=O)/C2=C\c1ccccc1,1.07%
7,Cc1ccc(C)n1-c1nnc(N2CCC(C(=O)N3CCC(Cc4ccccc4)CC3)CC2)s1,4.22%
8,CC1CN(Cc2nc3c(c(=O)[nH]c(=O)n3C)n2Cc2ccccc2F)CC(C)O1 (stereo not drawn),0.44%
9,Cc1ccc(CNC(=O)C(=O)NCC(c2cccnc2)N2CCN(Cc3ccccc3)CC2)cc1 (stereo not drawn),-1.94%
10,CCOc1ccc(C2NCCc3cc(OCC)c(OCC)cc32)cc1OC (stereo not drawn),-2.85%
11,O=C(NC1CCCc2ccccc21)c1cnn(-c2ccccc2)c1-n1cccc1 (stereo not drawn),-3.58%
12,N#CCNC(=O)[C@H](CC1CCCCC1)NC(=O)N1CCNCC1,1.35%
13,O=C1CC(c2cc3c(cc2Br)OCO3)c2cc3c(cc2N1)CCC3 (stereo not drawn),6.92%
14,O=c1[nH]n(-c2ncnc3sc4c(c23)CCCC4)c(=O)c2ccccc12,2.79%
15,CCc1c(C)nc2nncn2c1NCc1ccco1,2.54%
16,C=CCSc1ncc(Cl)c(C(=O)Nc2nnc(SC)s2)n1,2.41%
17,N#Cc1ccc(-c2nnc3n(Cc4ccccc4)c(=O)c4ccccc4n23)cc1,1.68%
18,CCOC(=O)N1CCN(CC(C)CCC=C(C)C)CC1 (stereo not drawn),-2.02%
19,CCN(CC)C(=O)c1c(-c2ccccc2)oc2ccc(O)cc12,-2.6%
20,CCOC(=O)c1cc2c(=O)n3cc(C)ccc3nc2n(CCN2CCOCC2)c1=N,0.279%
21,CCOC(=O)N1CCN(C(=O)COc2ccccc2Cl)CC1,-4.51%
22,COc1ccc(CN2C(=O)C(C)S/C2=N/N=C/c2ccco2)cc1 (stereo not drawn),-1.47%
23,COc1ccc(-c2nnc(SCC(=O)N3CCCCC3C)o2)cc1 (stereo not drawn),-3.49%
24,Cc1cccc(OCC(=O)Nc2sc3c(c2C#N)CCCC3)c1,-5.63%
25,O=C(c1cncc(Br)c1)N1CCC(c2c[nH]c3ccccc23)(c2c[nH]c3ccccc23)CC1,-2.37%
26,CC1CN=C(Nc2cccc3ccccc23)S1 (stereo not drawn),6.79%
27,O=C1C2C3C=CC(C2C(=O)N1C1CCCCC1)C1C2C(=O)N(C4CCCCC4)C(=O)C2C31 (stereo not drawn),-3.45%
